Measured values: publication PMC4336329 (PLoS ONE, 2015)
About 14,000 (4.5%) of roughly 310,000 compounds showed an effect of 50% or more. The effect is printed as a negative number. This is one part of the list.

target: human ether-à-go-go-related gene (hERG) potassium channel (human, UniProt Q12809); assay: primary screen, population patch clamp on CHO cells stably expressing hERG
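Also: peak tail current of the secondary pulse compared with the same well before compound.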

Chain of human ether-à-go-go-related gene (hERG) potassium channel (Q12809 whole entry, looked up): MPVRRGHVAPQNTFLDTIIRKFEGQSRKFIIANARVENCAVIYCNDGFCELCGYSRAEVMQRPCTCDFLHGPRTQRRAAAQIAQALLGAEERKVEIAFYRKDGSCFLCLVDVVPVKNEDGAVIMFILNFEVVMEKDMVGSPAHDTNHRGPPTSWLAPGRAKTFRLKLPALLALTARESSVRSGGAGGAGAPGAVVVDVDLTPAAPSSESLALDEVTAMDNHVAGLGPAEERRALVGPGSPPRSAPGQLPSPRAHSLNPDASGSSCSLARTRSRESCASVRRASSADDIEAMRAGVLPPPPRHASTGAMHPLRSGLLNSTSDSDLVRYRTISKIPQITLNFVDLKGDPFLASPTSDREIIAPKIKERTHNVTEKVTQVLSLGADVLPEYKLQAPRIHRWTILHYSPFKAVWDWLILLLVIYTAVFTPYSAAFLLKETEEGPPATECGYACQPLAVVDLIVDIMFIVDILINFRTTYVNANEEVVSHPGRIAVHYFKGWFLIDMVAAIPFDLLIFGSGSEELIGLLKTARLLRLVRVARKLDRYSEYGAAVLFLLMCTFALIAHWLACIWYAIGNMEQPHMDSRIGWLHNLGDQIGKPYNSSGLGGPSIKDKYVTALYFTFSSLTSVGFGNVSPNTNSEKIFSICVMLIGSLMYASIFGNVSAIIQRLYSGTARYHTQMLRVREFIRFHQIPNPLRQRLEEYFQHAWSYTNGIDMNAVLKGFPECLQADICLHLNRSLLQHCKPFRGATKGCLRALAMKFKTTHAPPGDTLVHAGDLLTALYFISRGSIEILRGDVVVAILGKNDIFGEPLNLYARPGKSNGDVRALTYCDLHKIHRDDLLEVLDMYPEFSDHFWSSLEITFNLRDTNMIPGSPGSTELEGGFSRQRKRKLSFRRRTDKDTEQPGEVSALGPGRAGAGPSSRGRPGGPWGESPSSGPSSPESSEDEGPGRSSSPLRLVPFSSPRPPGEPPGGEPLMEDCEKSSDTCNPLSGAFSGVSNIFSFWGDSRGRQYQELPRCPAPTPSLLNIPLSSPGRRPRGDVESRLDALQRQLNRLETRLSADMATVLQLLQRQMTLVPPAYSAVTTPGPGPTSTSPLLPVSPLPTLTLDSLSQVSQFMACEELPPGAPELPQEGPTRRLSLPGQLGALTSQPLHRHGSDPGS

SMILES	hERG current change (%, negative = inhibition) at 10uM
CC(C)NC(=O)Cn1cc(C(=O)c2ccccc2)c2ccccc21	19.3%
CC(C)OCCCNC(=O)c1ccc(NC(=O)C2CCCO2)cc1 (stereo not shown)	-10.6%
CCN1CCN(Cc2ccc(NC(=O)c3ccc(C)c(NC(=O)C4=NN(c5ccccc5)C(=O)C4)c3)cc2C(F)(F)F)CC1	13.6%
O=Cc1c(N2CCCCC2)nc2ccccn2c1=O	9.69%
COCCn1nnnc1SCC(=O)c1ccc(F)cc1	12.3%
CCCCC1CCC(/C(N)=N/O)CC1 (stereo not shown)	-0.0893%
CSC1=NCCN1C(=O)c1ccc(Br)o1	4.71%
Cc1ccc(NC(=S)NC2CCN(Cc3ccccc3)CC2)cc1C	-34.9%
O=C(NC1CCCCC1)C1CCCN(S(=O)(=O)c2cccc3cccnc23)C1 (stereo not shown)	-9.85%
CCOC(=O)c1cn2nc(Oc3cccc(C(F)(F)F)c3)ccc2n1	-6.27%
Cc1noc(NS(=O)(=O)c2ccc(NC(=O)NC(C)(C(F)(F)F)C(F)(F)F)cc2)c1C	11.8%
COc1ccc2nc(N3C(=O)/C(=C/c4ccccc4)NC3=S)sc2c1	-3.36%
CCCCC(=O)Nc1ccc(NC(=O)c2cccnc2)cn1	-1.56%
COc1ccc(NC(=O)CN2CC(c3ccccc3)CC2=O)cc1OC (stereo not shown)	8.33%
C[n+]1ccc(-c2ccccc2)c2ccccc21.[O-][Cl+3]([O-])([O-])[O-]	18.2%
Cc1cccnc1NC(=O)c1csnn1	10.7%
CCS(=O)(=O)N1CCN(c2ccccc2)CC1	2.54%
COc1nc(OC)nc(N2CCC(C(=O)Nc3cccc4ccccc34)CC2)n1	-16.3%
Cc1cc(OCCOCCNCc2ccccc2)ccc1C(C)C.O=C(O)C(=O)O	-30.6%
COc1ccccc1CC(=O)NCCc1c[nH]c2ccccc12	5.81%
O=C(c1cc(-c2ccccn2)nc2c(Cl)cccc12)N1CCN(C(=O)C2CCCO2)CC1 (stereo not shown)	-35.8%
CCCCn1cnc2c([nH]c3cc(OC)ccc32)c1=O	4.88%

SMILES	hERG current change (%, negative = inhibition) at 10uM
NC1=NC(c2ccccc2)=NC1(NC(=O)c1ccccc1)C(Cl)Cl (stereo not shown)	17%
CC1=C(C(=O)OCc2ccccc2)N2C(=O)[C@@H](NC(=O)COc3ccccc3)[C@H]2SC1	-44.5%
O=c1cc(CN2CCN(S(=O)(=O)c3ccccc3)CC2)nc2ccc(Cl)cn12	-56%
CCOC(=O)Cn1c(=O)oc2cc(S(=O)(=O)N(C)Cc3ccco3)ccc21	-6.02%
O=C1CC(N2CCCCCC2)C(=O)N1c1ccc2c(c1)OCO2 (stereo not shown)	-1.67%
Cc1ccc(S(=O)(=O)N2CCN(C(=O)C3CCCCC3)CC2)cc1	-16%
c1ccc(-c2nnc(SCC3CCCO3)nc2-c2ccccc2)cc1 (stereo not shown)	-2.07%
Cc1ccc(NC(=O)c2ccc(OC(=O)COc3ccc(Cl)cc3C)cc2)cc1	5.61%
O=C(NCc1ccc(Cl)cc1)NCc1ccc(Cl)cc1	14.4%
Cc1nc(SCC(=O)NCC2CCCO2)c2c3c(sc2n1)CCCC3 (stereo not shown)	-23.5%
O=C(NCc1ccncc1)c1cccc(F)c1	0.361%
COC(=O)CSc1nnc(CSc2nc(C)cc(C)n2)n1Cc1ccco1	7.23%
Cc1csc(NC(=O)c2ccccc2C(=O)O)n1	-0.365%
Cc1ccc(C)c(NS(=O)(=O)c2cc(C(=O)NCc3ccccn3)ccc2Cl)c1	-37.5%
Cc1nc(CC(=O)c2ccc(O)cc2O)cs1	10.1%
S=c1[nH]nc(-c2ccc3ncccc3c2)n1-c1ccc2c(c1)OCCO2	10.9%
COc1cc(/C=N/NC(=O)NC23CC4CC(CC(C4)C2)C3)ccc1O	-34.3%
CCCC(=O)Nc1cc(C)c(NC(=O)Cc2ccccc2)cn1	2.52%
Cc1nc2cc(NC(=O)NCCC3=CCCCC3)ccc2o1	5.56%
O=[N+]([O-])c1cc(/C=N/O)ccc1SCc1ccccc1Cl	-1%
CCc1nnc(NC(=O)CSCc2cc(=O)n3cc(C)sc3n2)s1	5.66%
Cc1cc(Cl)ccc1N(CC(=O)NCc1ccccc1)S(C)(=O)=O	-1.12%

SMILES	hERG current change (%, negative = inhibition) at 10uM
C/C=C/C(=O)OCC(=O)NC(=O)NC(C)C	2.41%
Cc1ccc(CCNC(=O)c2ccc(CS(=O)(=O)c3ccccc3C)o2)cc1	-42.4%
S=c1[nH]nc(-c2cc(-c3ccccc3)n[nH]2)n1/N=C/c1ccc(Br)s1	13.2%
COc1cc(O)c(CCC(=O)c2ccc(OC)c(OC)c2)c(OC)c1	9.29%
O=C(c1cccc(C(F)(F)F)c1)C1CCCN(C(=O)CCCN2CCCC2=O)C1 (stereo not shown)	-4.27%
CS(=O)(=O)N(Cc1ccccc1)c1ccc(C(=O)Nc2ccccc2C(=O)O)cc1	21.2%
CC(=O)NC(CCS(C)(=O)=O)C(=O)Nc1ccccc1C (stereo not shown)	4.17%
CCOc1c(Br)ccc2c1sc1nc[nH]c(=O)c12	-12.2%
Cc1ccc(CNC(=O)CCSCc2ccc(C)cc2)cc1	-2.27%
O=C(c1ccoc1)N1CCC2(CC1)Oc1ccc(F)cc1C(=O)C21CC(c2ccc(Cl)cc2)=NO1 (stereo not shown)	18.5%
O=C(Nn1c(Cc2ccccc2)nc2ccccc2c1=O)c1c(O)c2cccc3c2n(c1=O)CCC3	23.9%
CCOC(=O)c1ccc(NC(=S)Nc2ccccc2N)cc1	12%
CCN(C(=O)/C=C/c1ccc(OC)cc1)C1CCS(=O)(=O)C1 (stereo not shown)	-22.6%
O=C(CCN1C(=O)c2ccccc2C1=O)N1CCOCC1	3.02%
COC(=O)CCC(=O)Nc1c(C)n(C)n(-c2ccccc2)c1=O	10.2%
O=c1c2ccccc2nc(N/N=C/c2c(O)ccc3ccccc23)n1O	0.819%
Cc1occc1-c1nnc(SCC(=O)NC(C)(C)C)n1C(C)c1ccccc1 (stereo not shown)	-11.8%
Cc1ccc(-c2cc(-c3ccc(C)cc3O)[nH]n2)cc1	11.3%
COc1cc(CNCc2ccccn2)ccc1OCC(N)=O.Cl	-0.0507%
Cc1nc2cc(NC(=O)COc3ccccc3C#N)ccc2n1-c1ccccc1	-4.85%
CCOC(=O)C1=C(N)Oc2cc(C)oc(=O)c2C12C(=O)N1c3c(cc(OC)cc32)C(C)=CC1(C)C (stereo not shown)	-1.93%
Cc1nnc(SCCCCSc2nnc(C)c(=O)[nH]2)[nH]c1=O	10.5%

SMILES	hERG current change (%, negative = inhibition) at 10uM
COc1cccc(CC(=O)Nc2nc(-c3ccc(F)c(F)c3)cs2)c1	12.7%
N#Cc1c(-c2ccc3c(c2)OCO3)cc[nH]c1=O	18.8%
CCc1ccccc1NC(=O)C1CCCN(c2ncnc3onc(-c4ccc(F)cc4)c23)C1 (stereo not shown)	11.2%
CC(C)Cn1c(SCC(=O)N2CCN(C(=O)c3ccco3)CC2)nc2ccccc2c1=O	-73.2%
O=C1NC(=Nc2ccccc2Cl)S/C1=C\c1cccc([N+](=O)[O-])c1O	13.6%
O=C(CN1CCN(S(=O)(=O)c2ccccc2)CC1)Nc1ccccc1C(=O)c1ccccc1	-19.4%
Cn1nc(C(=O)OCc2ccccc2F)c2ccccc2c1=O	13%
CC(C)(C)c1cc(NC(=O)Nc2ccc(Br)cc2Cl)no1	25.1%
CCOC(=O)c1c(-c2ccc(C)o2)csc1NC(=S)NC(=O)c1ccccc1Br	15.3%
Cl.c1ccc2c(Nc3ccc4c(c3)OCCO4)c3c(nc2c1)CCC3	-52.3%
COc1ccc2c(c1)C(c1ccc(Cl)cc1)NC(=O)C2 (stereo not shown)	-5.84%
CCc1ccccc1NC(=O)Nc1cccn(Cc2ccccc2F)c1=O	-19.5%
O=C(O)c1[nH]c2ccccc2c1C(c1ccccc1)c1c(C(=O)O)[nH]c2ccccc12	25.4%
Cc1cccc(CCNCc2cc3ccc(C)cc3[nH]c2=O)c1	-77.3%
N#C/C(Cn1c[n+](NC(=O)Nc2ccccc2)cn1)=N/O.[Cl-]	16.2%
O=C(Cn1ncc2c([nH]c3ccccc32)c1=O)NCC1CCN(Cc2ccc(F)cc2)CC1	-66%
CC(=O)Nc1cccc(C(=O)NC(C)c2ccc(-n3ccnc3)cc2)c1 (stereo not shown)	-0.474%
COc1ccc2[nH]c(=O)c(CN(C(=O)c3ccccn3)c3ccccc3)cc2c1	21%
CC1(C)Cc2c(c(N3CCOCC3)nc3snc(N)c23)CO1	2.29%
COc1ccc(/C=N\NC(=O)c2cccc(Br)c2)c(OC)c1	-10.8%
Cc1ccc(C(=O)N/C(=C/c2ccccc2F)C(=O)NCCCn2ccnc2)cc1	-40.5%
C=CCOC(=O)C1=C(C)NC(SCC(=O)Nc2nccs2)=C(C#N)C1c1ccc(Cl)cc1 (stereo not shown)	17.2%
